Assay results reported in PMC4242493.
The other results are listed elsewhere or left out. The list includes weakly bound sequences.

target: MaxL homodimer (UniProt P61244); test: universal protein-binding microarray (PBM); conditions: PBS-based mixture, 10 nM His-tagged protein dimer, 2% milk, 200 ng/uL BSA, 50 ng/uL salmon testes DNA, 0.02% TX-100; detection with Alexa 488 anti-His …; high values mean tight binding; most listed sequences are background and not binding sites; double strand, one strand shown
UniProt P61244, sequence (P61244 whole entry): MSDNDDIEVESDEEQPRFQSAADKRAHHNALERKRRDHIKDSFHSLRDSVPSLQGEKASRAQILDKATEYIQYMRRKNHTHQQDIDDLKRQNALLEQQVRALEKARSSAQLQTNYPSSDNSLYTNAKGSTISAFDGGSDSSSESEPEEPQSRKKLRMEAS

| Sequence | binding signal (normalized occupancy) |
| --- | --- |
| CTAACTAG | 0.07 |
| TATAGCGA | 0.0803 |
| ACTGATGC | 0.077 |
| AGTTCGCA | 0.0724 |
| ACTAAGGA | 0.0759 |
| TATCCAAA | 0.0792 |
| ATTGGAGG | 0.0738 |
| AGCCGGAG | 0.0658 |
| CGCTCTTC | 0.0661 |
| GGCACACA | 0.0798 |
| CTATAGTC | 0.0784 |
| CCGAGCAC | 0.0759 |
| TTAGAAAA | 0.0757 |
| ACAACCAA | 0.0757 |
| CCCCACGG | 0.0843 |
| ATTTGTTC | 0.0761 |
| AACAGAAT | 0.0706 |
| AAACTGTC | 0.0741 |
| GACCTGAC | 0.0746 |
| GCTACTGA | 0.0661 |
| GTCGCGCA | 0.0729 |
| ATTTATGA | 0.082 |
| TGAAGAAA | 0.0695 |
| CGCCTGTC | 0.0713 |
| AGGCTCTG | 0.0739 |

| Sequence | binding signal (normalized occupancy) |
| --- | --- |
| CGCCGTAA | 0.0692 |
| ATGTGTTG | 0.0905 |
| CATCGTTA | 0.0799 |
| ATGCTAAT | 0.0804 |
| CTGAGAAC | 0.0768 |
| ACGATACA | 0.0848 |
| CCATTACA | 0.0823 |
| ACATCCCA | 0.0755 |
| GATGAACC | 0.0746 |
| GCCAGTCA | 0.0708 |
| CACCTGTC | 0.0839 |
| CGCTATGC | 0.0734 |
| GAGGGCCC | 0.0675 |
| AGTCTGTA | 0.0713 |
| GCTACGCA | 0.0704 |
| GAGTTCTA | 0.0745 |
| CCATGTTA | 0.0847 |
| GCTCCTCA | 0.0753 |
| ACTGTACT | 0.0787 |
| ACTCACAC | 0.087 |
| CGAATGAG | 0.0743 |
| AGGGTGGA | 0.074 |
| GAACGAAA | 0.0745 |
| TACATCCA | 0.0837 |
| ATGTGGCG | 0.0879 |

| Sequence | binding signal (normalized occupancy) |
| --- | --- |
| GTACTGCA | 0.0772 |
| CAAGAGGC | 0.0687 |
| AAGATCGA | 0.0761 |
| TCACAAGA | 0.0753 |
| CGCTAACG | 0.075 |
| ATCCAACG | 0.0771 |
| CGTTTGCA | 0.0714 |
| CGATAACC | 0.0756 |
| GAAGGAGC | 0.0701 |
| CCTCTCAC | 0.0781 |
| CATTTCCA | 0.0828 |
| AGGAACGG | 0.0715 |
| TGATGTAA | 0.083 |
| TAGGACTA | 0.0732 |
| CTGACTAC | 0.0771 |
| AGGCGGAG | 0.067 |
| CTTTGCCA | 0.0734 |
| CGCTTCCG | 0.0681 |
| AGCCGTCG | 0.0694 |
| GTGCCGAA | 0.0732 |
| AAGAGAGG | 0.0745 |
| AATCTCGT | 0.0762 |
| ACTCGGGG | 0.076 |
| CCCATGTA | 0.0872 |
| ACCCTAAG | 0.0771 |

| Sequence | binding signal (normalized occupancy) |
| --- | --- |
| GTATACAA | 0.0771 |
| GCTGCGCA | 0.0685 |
| ACAGGACG | 0.0725 |
| ATGTCTCA | 0.0865 |
| AGCGCGCT | 0.0814 |
| CCCACCAG | 0.0817 |
| GGATTTGA | 0.0761 |
| CGCACCAA | 0.0722 |
| AACAGCAT | 0.087 |
| GACGATAA | 0.0782 |
| AAATCAGG | 0.0754 |
| CGACCAGA | 0.0721 |
| AGTCCGGA | 0.0679 |
| CGTGCTCC | 0.085 |
| CCGCGGTA | 0.0727 |
| AGCATCAT | 0.0919 |
| ACTTCTCC | 0.0715 |
| AACGGGGC | 0.0728 |
| CGGCTGCC | 0.0673 |
| AGGGCGAG | 0.0742 |
| AGACTGAT | 0.0744 |
| CGAGCCGC | 0.0665 |
| CAAGGACA | 0.0835 |
| GCTCAAAA | 0.0658 |
| AAACGAAT | 0.0754 |

| Sequence | binding signal (normalized occupancy) |
| --- | --- |
| GTAGCGAC | 0.0722 |
| AGGGCGCC | 0.0702 |
| TCTTGCAA | 0.0693 |
| GCCGCACC | 0.0786 |
| AACACCAG | 0.0711 |
| TAAACGGA | 0.068 |
| CGTAGACC | 0.0718 |
| AGTCTGCC | 0.0678 |
| CAACACCG | 0.0759 |
| CCCTGTTC | 0.0765 |
| AACAGAAG | 0.0776 |
| CAGAGCAG | 0.0723 |
| CCCATTCC | 0.0783 |
| AATGAGCT | 0.0741 |
| GCCGAGCA | 0.0695 |
| GCCTAGGA | 0.0702 |
| GCAGAAGC | 0.0732 |
| AAGCCCGA | 0.0696 |
| CATGTACC | 0.0843 |
| AACGTGGC | 0.107 |
| CGAACCCG | 0.0667 |
| AATCTGAC | 0.0748 |
| CTAAGAGA | 0.0732 |
| AGTCAGCG | 0.0777 |
| CCTATCAC | 0.0808 |

| Sequence | binding signal (normalized occupancy) |
| --- | --- |
| GATCGCTA | 0.0739 |
| GCTAAGGA | 0.0676 |
| CATGGTAG | 0.0879 |
| GGGGTCGA | 0.0803 |
| GACGGCAC | 0.0699 |
| CTCTGAAA | 0.0744 |
| CGGCACAG | 0.0692 |
| AATGAATT | 0.0743 |
| ACGAACGG | 0.0725 |
| ATTCCTGC | 0.0766 |
| CAATACAA | 0.079 |
| AGCTAAGA | 0.0736 |
| ATGATATC | 0.0909 |
| CCAGTTCG | 0.0685 |
| ATTGCTCC | 0.0675 |
| ACGCTTTG | 0.0776 |
| ACATCCAG | 0.0809 |
| AACAGGAA | 0.0715 |
| CGGCTCAA | 0.0688 |
| GATCCCAC | 0.0777 |
| ACACACAA | 0.0849 |
| ACTCAGTG | 0.071 |
| CGCAGCAG | 0.0666 |
| ATATACTG | 0.0765 |
| CAGTTCTC | 0.0708 |

| Sequence | binding signal (normalized occupancy) |
| --- | --- |
| AAGGCAAG | 0.0752 |
| GTCCTAAA | 0.0734 |
| AAGTTAAG | 0.0726 |
| AATCATTA | 0.0812 |
| AACCTATT | 0.0776 |
| ATTGTCCG | 0.0741 |
| AAGGCAGG | 0.0753 |
| ACGCTGTA | 0.0841 |
| CTTTGTGA | 0.071 |
| ATCTTCAA | 0.072 |
| ATGAAACA | 0.0788 |
| ACTATTCT | 0.0793 |
| CGACAACC | 0.0741 |
| CGGCTACG | 0.0653 |
| GACCCGAA | 0.0678 |
| CTCAATTC | 0.0775 |
| TCAATCCA | 0.077 |
| ATTCAGAC | 0.0739 |
| ATTCGGGC | 0.0757 |
| CTTTTCGA | 0.0725 |
| GGGGCTTA | 0.0728 |
| CTTCATAC | 0.0828 |
| GCACAGCC | 0.0786 |
| CATCGGAG | 0.0734 |
| CTTCGAGA | 0.068 |

| Sequence | binding signal (normalized occupancy) |
| --- | --- |
| GATACTGC | 0.0758 |
| AGCGCACA | 0.0739 |
| AACCACGA | 0.0902 |
| ACCTGTTA | 0.0847 |
| AGGAGGTC | 0.0719 |
| CTACCAAG | 0.0704 |
| GTCATATA | 0.0836 |
| ATGAGTCC | 0.0802 |
| GACCCTAC | 0.077 |
| AGGCCATG | 0.0833 |
| ATTTTCTG | 0.0707 |
| CGTCCGAC | 0.0735 |
| GGCGTGCA | 0.0978 |
| GTTGGACA | 0.073 |
| AATGTTCC | 0.0722 |
| AGATATTA | 0.0734 |
| ATCAGGGG | 0.086 |
| GGTAACAA | 0.0798 |
| CAGGAGGA | 0.0769 |
| AACATGAT | 0.0933 |
| GCCCCACC | 0.0778 |
| AGACTTCG | 0.0745 |
| ACCTTCGA | 0.0696 |
| TCCGAGAA | 0.0692 |
| ATATTCTG | 0.0793 |

| Sequence | binding signal (normalized occupancy) |
| --- | --- |
| CCATCTCG | 0.0738 |
| CTGGAGTA | 0.0757 |
| CTGCCCGC | 0.0693 |
| GCGCGTTA | 0.0795 |
| AACATAAA | 0.0831 |
| AGAGGCGC | 0.0679 |
| AAAGTGGT | 0.0721 |
| GAATCACA | 0.0791 |
| CCAATTAC | 0.0792 |
| TCGACTAA | 0.0729 |
| AGTTCGTG | 0.0811 |
| AAACTAGA | 0.073 |
| AGACAGAT | 0.0759 |
| TACCCAGA | 0.0745 |
| ACCAACCT | 0.0724 |
| CAAAGAAC | 0.0729 |
| CTTACTAA | 0.0721 |
| CGATGAAC | 0.0763 |
| GTGAAGGA | 0.0905 |
